# Hit rate of the full screen: of about 310,000 compounds, about 14,000 (4.5%) showed an effect of 50% or more. The effect is printed as a negative number. Some of the results follow.
# Biological target: human ether-à-go-go-related gene (hERG) potassium channel (human, UniProt Q12809)
# Assay: primary screen, population patch clamp on CHO cells stably expressing hERG
# 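Also: peak tail current of the secondary pulse compared with the same well before compound.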
# Sequence of human ether-à-go-go-related gene (hERG) potassium channel (Q12809 whole entry, looked up): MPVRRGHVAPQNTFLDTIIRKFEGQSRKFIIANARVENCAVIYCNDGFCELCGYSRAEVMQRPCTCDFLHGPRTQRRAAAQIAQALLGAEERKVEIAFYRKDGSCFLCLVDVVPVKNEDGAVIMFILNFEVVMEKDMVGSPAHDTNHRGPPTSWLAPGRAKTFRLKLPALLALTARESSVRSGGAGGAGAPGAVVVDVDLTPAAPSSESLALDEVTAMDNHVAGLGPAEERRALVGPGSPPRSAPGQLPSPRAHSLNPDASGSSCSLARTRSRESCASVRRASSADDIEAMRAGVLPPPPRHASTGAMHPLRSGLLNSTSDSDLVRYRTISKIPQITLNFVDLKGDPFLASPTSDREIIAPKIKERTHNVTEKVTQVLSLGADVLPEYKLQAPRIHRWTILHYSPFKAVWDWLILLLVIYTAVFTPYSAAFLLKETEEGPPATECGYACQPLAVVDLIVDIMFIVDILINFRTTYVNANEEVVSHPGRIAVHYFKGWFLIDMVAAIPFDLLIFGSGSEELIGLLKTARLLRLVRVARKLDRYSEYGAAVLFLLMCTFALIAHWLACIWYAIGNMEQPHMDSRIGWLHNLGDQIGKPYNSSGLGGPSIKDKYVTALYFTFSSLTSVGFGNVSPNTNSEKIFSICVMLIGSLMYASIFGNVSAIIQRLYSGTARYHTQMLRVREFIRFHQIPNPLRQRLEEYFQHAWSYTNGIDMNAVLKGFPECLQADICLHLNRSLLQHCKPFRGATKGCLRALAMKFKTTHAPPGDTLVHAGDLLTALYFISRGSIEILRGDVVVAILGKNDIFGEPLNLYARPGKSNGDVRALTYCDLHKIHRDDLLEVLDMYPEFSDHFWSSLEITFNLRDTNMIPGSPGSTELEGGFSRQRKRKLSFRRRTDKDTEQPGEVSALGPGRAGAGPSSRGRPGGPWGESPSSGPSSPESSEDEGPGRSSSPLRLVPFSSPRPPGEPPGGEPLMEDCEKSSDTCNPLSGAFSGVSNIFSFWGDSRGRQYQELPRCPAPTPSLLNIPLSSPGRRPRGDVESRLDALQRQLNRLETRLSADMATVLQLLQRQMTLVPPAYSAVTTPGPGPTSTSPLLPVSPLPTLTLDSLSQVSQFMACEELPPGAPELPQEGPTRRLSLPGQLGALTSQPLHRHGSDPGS
row,SMILES,"hERG current change (%, negative = inhibition) at 10uM"
1,CC1CCCCN1C(=O)CSc1nc(C2CC2)nc2ccccc12 (centres unmarked),-27.3%
2,O=P(O)(O)/C=C(\Cl)c1ccccc1,-3.41%
3,O=C(O)CN(CCc1ccccc1)S(=O)(=O)c1ccccc1,27.6%
4,CN(CCOC(=O)/C=C/c1ccccc1)C(C)(C)C.Cl,-22%
5,CCOC(=O)c1c(N)sc2c(O)c(Br)ccc12,-12.8%
6,Nc1c([N+](=O)[O-])c(=O)sc2ccccc12,10.2%
7,N#CCCn1c(SCC(=O)NCC2CCCO2)nc2ccccc21 (centres unmarked),1.96%
8,C/C(=N/NC(=O)c1ccco1)c1ccc(NC(=O)c2ccc(Br)o2)cc1,11.4%
9,COc1ccccc1NC(=O)[C@H](COCc1ccccc1)NC(=O)OC(C)(C)C,-5.47%
10,COc1ccccc1NC(=O)c1ccc2nsnc2c1,8.53%
11,CC(C)Oc1ccc(Cc2c(O)[nH]c(=O)[nH]c2=O)cc1,-1.23%
12,CCOC(=O)c1c(C)oc2c(F)c(F)c(F)c(F)c2c1=O,-0.91%
13,CCNC(=O)COC(=O)C1C(C(=O)OCC)=C(C)NC(C)=C1C(=O)OCC,3.38%
14,CC(=O)Oc1ccc2ccccc2c1C(NC(=O)Cc1ccccc1)c1ccc(Cl)cc1 (centres unmarked),-9.07%
15,Cc1ccc(CN(Cc2ccccn2)C(=O)Nc2c(F)cccc2F)cc1,-0.968%
16,COc1ccc2[nH]c(=O)c(CN(CCO)C(=O)c3ccccc3F)cc2c1,13.3%
17,CC(C)(C)c1ccc(O)c(N=Cc2cc(Br)ccc2O)c1,13.3%
18,CCOc1ccc(-n2c(SCc3ccc(C(=O)OC)o3)nc3c(c2=O)SCC3)cc1,-6.51%
19,COc1cc(C)c(C(=O)Oc2cc(C)c(C(=O)O)c(O)c2C)c(OC)c1C,5.49%
20,CCNc1ccc(C(=O)OCC(=O)Nc2cc(C)on2)cc1[N+](=O)[O-],3.63%

row,SMILES,"hERG current change (%, negative = inhibition) at 10uM"
1,CC(C)CNC(=O)COC(=O)/C=C/c1ccccc1[N+](=O)[O-],5.61%
2,CC1=NC(C(F)(F)F)(C(F)(F)F)C2=C(CC(C)(C)CC2=O)N1Cc1ccco1,-4.65%
3,O=C(Cc1cccs1)N=Nc1c(O)[nH]c2ccc(Br)cc12,-4.97%
4,Cc1cc(C)c2c(c1)C1(OCCO1)C(=O)N2,15.6%
5,O=C(Cn1nnc(-c2ccc(Cl)cc2)n1)NCCC1=CCCCC1,5.97%
6,COc1ccc(-c2nn(C)c(=O)c3ccccc23)cc1CNC(=O)CN1CCOCC1,-3.03%
7,COc1cc(C(=O)Nc2nnc(SCC(=O)NCC3CCCO3)s2)cc(OC)c1OC (centres unmarked),19.9%
8,C/C(=C\C1CCCCC1)C(NC(=O)c1ccc(C(F)(F)F)cc1)c1ccc(-c2ccccc2)cc1 (centres unmarked),15.7%
9,Cc1ccc(Cl)cc1N1CCN(S(=O)(=O)N2CCCCC2)CC1,10.1%
10,COc1ccccc1OCCOCCn1cnc2ccccc2c1=O,-3.9%
11,CCc1ccccc1NC(=O)c1cc(-c2ccco2)on1,8.57%
12,Cc1cc(C)c(C(=O)CSC2=NC(N)=C(C#N)C3(CCCCC3)C2C(N)=O)cc1C (centres unmarked),-6.61%
13,CN(Cc1ccc(Br)cc1)C(=O)CCN1C(=O)c2cccc([N+](=O)[O-])c2C1=O,21.8%
14,Cc1cc2c(cc1S(N)(=O)=O)S(=O)(=O)CCC2,24.5%
15,Cc1c(C(=O)OCCN2CCCCC2)oc2ccccc12.Cl,-43.2%
16,O=C(O)Cn1c(=O)cnc2ccccc21,9.56%
17,Cl.N[C@H]1C(O)O[C@H](CO)[C@@H](O)[C@@H]1O (some centres unmarked),22.4%
18,COc1ccc(NC(=O)CSc2nncs2)cc1S(N)(=O)=O,3.55%
19,Cc1cc2c(NCCc3ccccc3)ncnc2s1.Cl,-14.4%
20,CC12CCC(=O)N1C(C(=O)NNC(=O)COc1ccccc1F)CS2 (centres unmarked),11.1%

row,SMILES,"hERG current change (%, negative = inhibition) at 10uM"
1,CC1(C)Cc2ccccc2/C(=C/C(=O)c2ccccc2)N1,7.35%
2,O=C(CCC(=O)Nc1ccccc1)N/N=C/c1ccccc1F,9.14%
3,CC1CCN(CC(O)COc2ccc(F)cc2)CC1 (centres unmarked),-37.7%
4,O=C(NNS(=O)(=O)c1ccc(F)cc1)c1cc(Cl)ccc1O,11.4%
5,CCCCN1CC[C@H]2C=CC[C@@H](C(=O)Nc3ccc(Cl)c(C(F)(F)F)c3)[C@H]2C1=O,-34.2%
6,Cc1c(CC=C(Cl)Cl)c(=O)[nH]c2c(C)cccc12,22.2%
7,Cc1cccc(NC(=O)NC2(C)CCS(=O)(=O)C2)c1 (centres unmarked),6.52%
8,CCOc1ccccc1-n1cnc2cc(C(=O)NCc3ccco3)ccc21,-31.3%
9,COc1ccc(C(=O)COC(=O)CNC(=O)c2cccs2)cc1Br,-19%
10,N#CCOC(=O)C1c2ccccc2Oc2ccccc21,-1.32%
11,COc1ccc(OC)c(-c2csc(N(Cc3ccco3)C(=O)c3cccs3)n2)c1,0.858%
12,COC(=O)C1=C(C)Nc2c(c(=O)n(C)c(=O)n2C)C1c1cccc(O)c1 (centres unmarked),11.5%
13,COCCNc1nc(N)c([N+](=O)[O-])c(NCc2ccccc2)n1,5.84%
14,CCOC(=O)N1CCN(Cc2nc(N)nc(Nc3ccc(OCC)cc3)n2)CC1,-67.6%
15,Cc1ccc(NC(=O)CN2C(=O)/C(=C\c3cccs3)SC2=S)cc1,-1.74%
16,O=C(c1csc(Nc2cccc3ccccc23)n1)N1CCCC1,-23.8%
17,CC(=O)c1ccc(NS(=O)(=O)c2ccccc2)cc1,-5.26%
18,S=c1[nH]cnc2sc(-c3ccccc3)cc12,8.96%
19,COc1ccc(S(=O)(=O)N2CCN(C(=S)Nc3ccc(S(N)(=O)=O)cc3)CC2)cc1,15.7%
